Laboratory results reported in the supplement of paper PMC8728848.
This is one part of the list.

How the values were obtained:
Assay in all cases: glycan array binding signal (z-score within array); higher = stronger binding
Conditions in all cases: glycan notation: IUPAC condensed, linker removed
[1] = molecular target: Gal(b1-4)GlcNAc(b1-3)Gal(b1-3)GlcNAc
In short: (§1)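 Glycan array binding is given as a within-array Z-score, which can be read as non-binding when negative. The arrays, 3228 of them, came from the Consortium for Functional Glycomics database and were retained only where the protein sequence was available. Z-scores were averaged across arrays of the same protein sequence at different concentrations or buffers and across linkers.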

[2] = molecular target: Gal(b1-4)GlcNAc(b1-3)Gal(b1-4)Glc
In short: as §1

[3] = molecular target: Gal(b1-4)GlcNAc(b1-3)Gal(b1-4)GlcNAc
In short: as §1

[4] = molecular target: Gal(b1-4)GlcNAc(b1-3)Gal(b1-4)GlcNAc(b1-2)Man(a1-3)[Gal(b1-4)GlcNAc(b1-3)Gal(b1-4)GlcNAc(b1-2)Man(a1-6)]Man(b1-4)GlcNAc(b1-4)GlcNAc
In short: as §1

[5] = molecular target: Gal(b1-4)GlcNAc(b1-3)Gal(b1-4)GlcNAc(b1-2)Man(a1-3)[Gal(b1-4)GlcNAc(b1-3)Gal(b1-4)GlcNAc(b1-2)Man(a1-6)]Man(b1-4)GlcNAc(b1-4)[Fuc(a1-6)]GlcNAc
In short: as §1

[6] = molecular target: Gal(b1-4)GlcNAc(b1-3)Gal(b1-4)GlcNAc(b1-2)[Gal(b1-4)GlcNAc(b1-3)Gal(b1-4)GlcNAc(b1-6)]Man(a1-6)[Gal(b1-4)GlcNAc(b1-3)Gal(b1-4)GlcNAc(b1-2)Man(a1-3)]Man(b1-4)GlcNAc(b1-4)GlcNAc
In short: as §1

[7] = molecular target: Gal(b1-4)GlcNAc(b1-3)Gal(b1-4)GlcNAc(b1-2)[Gal(b1-4)GlcNAc(b1-3)Gal(b1-4)GlcNAc(b1-6)]Man(a1-6)[Gal(b1-4)GlcNAc(b1-3)Gal(b1-4)GlcNAc(b1-2)Man(a1-3)]Man(b1-4)GlcNAc(b1-4)[Fuc(a1-6)]GlcNAc
In short: as §1

[8] = molecular target: Gal(b1-4)GlcNAc(b1-3)Gal(b1-4)GlcNAc(b1-3)Gal(b1-4)GlcNAc
In short: as §1

[9] = molecular target: Gal(b1-4)GlcNAc(b1-3)Gal(b1-4)GlcNAc(b1-3)Gal(b1-4)GlcNAc(b1-2)Man(a1-3)[Gal(b1-4)GlcNAc(b1-3)Gal(b1-4)GlcNAc(b1-3)Gal(b1-4)GlcNAc(b1-2)Man(a1-6)]Man(b1-4)GlcNAc(b1-4)GlcNAc
In short: as §1

[10] = molecular target: Gal(b1-4)GlcNAc(b1-3)Gal(b1-4)GlcNAc(b1-3)Gal(b1-4)GlcNAc(b1-2)Man(a1-3)[Gal(b1-4)GlcNAc(b1-3)Gal(b1-4)GlcNAc(b1-3)Gal(b1-4)GlcNAc(b1-2)Man(a1-6)]Man(b1-4)GlcNAc(b1-4)[Fuc(a1-6)]GlcNAc
In short: as §1

[11] = molecular target: Gal(b1-4)GlcNAc(b1-3)Gal(b1-4)GlcNAc(b1-3)Gal(b1-4)GlcNAc(b1-2)[Gal(b1-4)GlcNAc(b1-3)Gal(b1-4)GlcNAc(b1-3)Gal(b1-4)GlcNAc(b1-6)]Man(a1-6)[Gal(b1-4)GlcNAc(b1-3)Gal(b1-4)GlcNAc(b1-3)Gal(b1-4)GlcNAc(b1-2)Man(a1-3)]Man(b1-4)GlcNAc(b1-4)[Fuc(a1-6)]GlcNAc
In short: as §1

[12] = molecular target: Gal(b1-4)GlcNAc(b1-3)Gal(b1-4)GlcNAc(b1-3)Gal(b1-4)GlcNAc(b1-3)Gal(b1-4)GlcNAc(b1-2)Man(a1-3)[Gal(b1-4)GlcNAc(b1-3)Gal(b1-4)GlcNAc(b1-3)Gal(b1-4)GlcNAc(b1-3)Gal(b1-4)GlcNAc(b1-2)Man(a1-6)]Man(b1-4)GlcNAc(b1-4)GlcNAc
In short: as §1

[13] = molecular target: Gal(b1-4)GlcNAc(b1-3)Gal(b1-4)GlcNAc(b1-3)Gal(b1-4)GlcNAc(b1-3)Gal(b1-4)GlcNAc(b1-2)Man(a1-3)[Gal(b1-4)GlcNAc(b1-3)Gal(b1-4)GlcNAc(b1-3)Gal(b1-4)GlcNAc(b1-3)Gal(b1-4)GlcNAc(b1-2)Man(a1-6)]Man(b1-4)GlcNAc(b1-4)[Fuc(a1-6)]GlcNAc
In short: as §1

[14] = molecular target: Gal(b1-4)GlcNAc(b1-3)Gal(b1-4)GlcNAc(b1-3)Gal(b1-4)GlcNAc(b1-3)Gal(b1-4)GlcNAc(b1-2)[Gal(b1-4)GlcNAc(b1-3)Gal(b1-4)GlcNAc(b1-3)Gal(b1-4)GlcNAc(b1-3)Gal(b1-4)GlcNAc(b1-6)]Man(a1-6)[Gal(b1-4)GlcNAc(b1-3)Gal(b1-4)GlcNAc(b1-3)Gal(b1-4)GlcNAc(b1-3)Gal(b1-4)GlcNAc(b1-2)Man(a1-3)]Man(b1-4)GlcNAc(b1-4)[Fuc(a1-6)]GlcNAc
In short: as §1

[15] = molecular target: Gal(b1-4)GlcNAc(b1-3)Gal(b1-4)GlcNAc(b1-3)Gal(b1-4)GlcNAc(b1-3)Gal(b1-4)GlcNAc(b1-3)Gal(b1-4)GlcNAc(b1-2)Man(a1-3)[Gal(b1-4)GlcNAc(b1-3)Gal(b1-4)GlcNAc(b1-3)Gal(b1-4)GlcNAc(b1-3)Gal(b1-4)GlcNAc(b1-3)Gal(b1-4)GlcNAc(b1-2)Man(a1-6)]Man(b1-4)GlcNAc(b1-4)GlcNAc
In short: as §1

[16] = molecular target: Gal(b1-4)GlcNAc(b1-3)Gal(b1-4)GlcNAc(b1-3)Gal(b1-4)GlcNAc(b1-3)Gal(b1-4)GlcNAc(b1-3)Gal(b1-4)GlcNAc(b1-2)Man(a1-3)[Gal(b1-4)GlcNAc(b1-3)Gal(b1-4)GlcNAc(b1-3)Gal(b1-4)GlcNAc(b1-3)Gal(b1-4)GlcNAc(b1-3)Gal(b1-4)GlcNAc(b1-2)Man(a1-6)]Man(b1-4)GlcNAc(b1-4)[Fuc(a1-6)]GlcNAc
In short: as §1

[17] = molecular target: Gal(b1-4)GlcNAc(b1-3)Gal(b1-4)GlcNAc(b1-3)Gal(b1-4)GlcNAc(b1-3)Gal(b1-4)GlcNAc(b1-3)Gal(b1-4)GlcNAc(b1-2)[Gal(b1-4)GlcNAc(b1-3)Gal(b1-4)GlcNAc(b1-3)Gal(b1-4)GlcNAc(b1-3)Gal(b1-4)GlcNAc(b1-3)Gal(b1-4)GlcNAc(b1-6)]Man(a1-6)[Gal(b1-4)GlcNAc(b1-3)Gal(b1-4)GlcNAc(b1-3)Gal(b1-4)GlcNAc(b1-3)Gal(b1-4)GlcNAc(b1-3)Gal(b1-4)GlcNAc(b1-2)Man(a1-3)]Man(b1-4)GlcNAc(b1-4)[Fuc(a1-6)]GlcNAc
In short: as §1

[18] = molecular target: Gal(b1-4)GlcNAc(b1-3)Gal(b1-4)GlcNAc(b1-3)Gal(b1-4)GlcNAc(b1-3)Gal(b1-4)GlcNAc(b1-3)Gal(b1-4)GlcNAc(b1-3)Gal(b1-4)GlcNAc(b1-2)Man(a1-3)[Gal(b1-4)GlcNAc(b1-3)Gal(b1-4)GlcNAc(b1-3)Gal(b1-4)GlcNAc(b1-3)Gal(b1-4)GlcNAc(b1-3)Gal(b1-4)GlcNAc(b1-3)Gal(b1-4)GlcNAc(b1-2)Man(a1-6)]Man(b1-4)GlcNAc(b1-4)GlcNAc
In short: as §1

[19] = molecular target: Gal(b1-4)GlcNAc(b1-3)Gal(b1-4)GlcNAc(b1-3)GalNAc
In short: as §1

B1: MGL2 (Mus musculus), Q8JZN1 (protein)
chain: MTMRYENFQNLEREEKNQEMRNGDKKGGMESPKFALIPSQSFLWRILSWTHLLLFSLGLSLLLLVVISVIGSQNSQLRRDLGTLRAILDNTTSKIKAEFQSLDSRADNFEKGISSLKVDVEDHRQELQAGRDLSQKVTSLESTLEKREQALKTDLSDLTDHVQQLETDLKALTCQLANLKNNGSEVACCPLHWTEHEGSCYWFSESEKSWPEADKYCRLENSHLVVVNSLEEQNFLQNRLANVLSWMGLTDQNGPWRWVDGTDFDKGFKNWRPLQPDNWHGHMLGGGEDCAHFSYDGRWNDDVCQRHYHWICETELGKASSAHSPQLIASVP
glycan array binding signal (z-score) [1]: -0.18 | glycan array binding signal (z-score) [2]: -0.18 | glycan array binding signal (z-score) [3]: -0.11 | glycan array binding signal (z-score) [4]: 0.171 | glycan array binding signal (z-score) [5]: 0.058 | glycan array binding signal (z-score) [6]: 0.108 | glycan array binding signal (z-score) [7]: -0.065 | glycan array binding signal (z-score) [8]: -0.241 | glycan array binding signal (z-score) [9]: 0.265 | glycan array binding signal (z-score) [10]: 0.042 | glycan array binding signal (z-score) [11]: -0.16 | glycan array binding signal (z-score) [12]: -0.025 | glycan array binding signal (z-score) [13]: 0.082 | glycan array binding signal (z-score) [14]: -0.105 | glycan array binding signal (z-score) [15]: -0.062 | glycan array binding signal (z-score) [16]: 0.33 | glycan array binding signal (z-score) [17]: -0.133 | glycan array binding signal (z-score) [18]: -0.201 | glycan array binding signal (z-score) [19]: 0.16
